Laboratory results taken from the supplement of paper PMC11417369.
± gives the standard deviation of the averaged measurements. Some of the results follow.

Test system: PfAP2-LT AP2 domain (GST-tagged)
Assay: gcPBM binding intensity (ln(normalized median fluorescence intensity)); higher = stronger DNA binding
How it was run: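 Alexa488 anti-GST antibody, scanned at 488 nm, detected GST-tagged P. falciparum DNA-binding domains that had been expressed in E. coli and incubated for 1 h on an Agilent 4 × 180k array. The array carried primer-extended double-stranded 36-bp intergenic genomic probes and negative controls. Binding intensity is the highest Masliner-normalised natural-log median intensity across replicate spots of either orientation of each probe.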

Sequence	gcPBM binding intensity (ln)
AAAAATTTCTATTTTTGTACTTACTTTTTAGTAATA [XGTACX_site5236]	8.41 ± 0.47
TAACAATTATGCTGGTGTACGTTTGAAATTGGGTAT [XGTACX_site6846]	8.89 ± 0.4
TACACAAGAAAATTCACACACACACCGATATATATA [CACACA_site6008]	9.87 ± 0.16
AAATCTTCATAATAAAGTACTTAACTCTTGGTGTTA [XGTACX_site6112]	8.52 ± 0.42
CTTATATTTGGACACACACACAATAAAATGAAAAAA [CACACA_site6614]	9.47 ± 0.37
AAAAAAAAAAAAAAAACATGCAGTTAGTGGTTTTTT [TGCATGCA_site243]	8.82 ± 0.4
AATAAATGGAAAAGGTGTACACAAAAAAAAGGGAAA [XGTACX_site4956]	9.36 ± 0.8
TATGAACTTTTGGGGGTGCCTTAAAATGTATATTCT	8.97 ± 0.23
ATATATATATAAAGCAGTACACACATTTATTTTAGA [XGTACX_site7226]	9.03 ± 0.35
TCCCAATTTATTATGTGTACTTATTATATACATATA [XGTACX_site4033]	8.79 ± 0.45
TATCAAAGTAGAAGAGATCGATGTCATATTGTGATG [GTGCAC_negctrl_site42]	9.01 ± 0.4
ATATTCTAAATAAAGGGTACACAAAAATAATTAAAG [XGTACX_site5529]	8.78 ± 0.45
ATTGTGGATATTCTTACACACAAATTTATATATAAA [CACACA_site2601]	8.74 ± 0.37
TTATGAATACTTCAAGTGCATTTATTTTATATGACA	8.63 ± 0.48
TATTTGTAATATTATACACACATTATGTATTACAAA [CACACA_site3386]	8.85 ± 0.34
TTTTGTATATTATATGTACACACAATAAGTTAATAT [CACACA_site8207]	8.85 ± 0.31
ATACACACATATATGTGTACATATACATATATATAT [XGTACX_site6744]	9.88 ± 0.32
ATAATATGAAGAAGCACACTCAATTAAATACAGATA [CACACA_site4690]	9.01 ± 0.39
AACAAAATAGGGAACACACACATGTCGATATATAAA [CACACA_site7265]	9.34 ± 0.46
AAGAATTATTTTTTATGTACTTATATGTCAATTTTC [XGTACX_site6676]	8.78 ± 0.43
ATAGAATATTTTATTACACACAGAATAATAAAAAAT [CACACA_site6190]	8.97 ± 0.35
TTATTTTTTTTAGCATATACAAATATATATATATAT [GTGCAC_negctrl_site4]	8.78 ± 0.2
CTAAAAGGATGATGAATGCACTATTATTTATATGGA	8.59 ± 0.43

Sequence	gcPBM binding intensity (ln)
TGAAATTTGTTATATGCATGTAAAATATTACGACGA [TGCATGCA_site201]	8.65 ± 0.44
TTGTGTGAGCAAGTAGTGCATAATATAAATAAAAAA [GTGCAC_site9802]	9.07 ± 0.49
CATAAATATTTGTGTTGTACAAATATATATATTTAT [XGTACX_site7363]	8.71 ± 0.32
AAAATTGAAGGTAGAAGTACATATTTATTTCAATAA [XGTACX_site8732]	8.51 ± 0.5
GAAGGAAATAAATCAACACACATATATTATATATAT [CACACA_site2188]	9.05 ± 0.48
TGTATTTATTAATGTACACACATGCGTATGTTCGTT [CACACA_site5892]	9.46 ± 0.34
TATATAATATATTTATGTACGTATTTAAAAATTTAT [XGTACX_site160]	8.43 ± 0.42
TATGTCCATATTTCCACACACATATTATTTTTATAT [CACACA_site3798]	9.3 ± 0.42
TATTAAAAAATTATATGTACACATTTGTTATATACA [XGTACX_site2232]	8.63 ± 0.4
ATAAAAAAATAAATAACACACAAAATTACACGAAAA [CACACA_site3620]	9.09 ± 0.36
AATTAAAGGAATTACAACTTTGCAAGCGCAACATAA [CACACA_negctrl_site1411]	8.56 ± 0.46
TTCTTTATATATGTTCGTACATATTATTATAATACA [XGTACX_site1549]	8.82 ± 0.53
TAATTTTCATGTTCATGTACTTAAATATAAGGTAAA [XGTACX_site3284]	8.27 ± 0.4
TGCCTTATTAAAAGAATTACACATATTTAATCGAAA [GTGCAC_negctrl_site153]	8.31 ± 0.39
ATTCATAACAAAAAAAGTACTCAAAATAATAATAAA [XGTACX_site6079]	8.58 ± 0.51
AAATATATTTTTAATAGTACAATATGAAAATTTCAT [XGTACX_site2562]	8.41 ± 0.39
AGTAATTATTTTAGAGTGCATAGTTTTTTAATAAAT	8.46 ± 0.45
CACCATGTTAACAATACATGCATCACTATATAAATG [TGCATGCA_site36]	8.78 ± 0.35
AAAAAAAAGGAAATAACACACATGTATATATTTATA [CACACA_site1606]	8.89 ± 0.42
GTACACATATATATATATATATATATATATATATAT [CACACA_negctrl_site800]	10.1 ± 0.34
TTTTTTTTTTTTTTTTGTACTCATACATACTATTAT [XGTACX_site989]	8.69 ± 0.55
TTTTTATTATTTTAAAGTACTCTTTAGTAATTCCCT [XGTACX_site5863]	8.54 ± 0.52
